# According to PubChem BioAssay AID463173 (ICCB-Longwood Screening Facility, Harvard Medical School, 2010):
# The campaign covered roughly 52,000 compounds. About 4,300 (8.3%) were called active. Rule as the data show it: active = survival mostly below about 52% (no sharp cut-off); inactive = mostly above about 56%. The list shows a part of the results.
# Tested on: DeltatarO mutant
# Assay: growth inhibition of S. aureus wild type versus tarO mutant, primary screen, teichoic acid synthesis inhibitors, RN4220, OD600 (AID 463173)
# Conditions: OD600, 18 h, hits give low values, screened at 18.75 µg/mL (by protocol)
row,Compound,survival
1,CCC(C)(C)NS(=O)(=O)c1cccs1,inactive: 81%
2,Cc1nc(N2CCCC2)ncc1C(=O)N1CCN(c2ccccc2F)CC1,inactive: 94%
3,COc1ccc(Cn2c(CO)cnc2SCc2cccc(C)c2)cc1,inactive: 94%
4,COc1ccccc1N1CCN(C(=O)CCS(=O)(=O)c2cc(Br)cc3c2N(C(C)=O)CC3)CC1,inactive: 53%
5,O=C(c1nc2ncccn2n1)N1CCN(C(c2ccccc2)c2ccccc2)CC1,inactive: 82%
6,Cc1ccc(C(=O)n2nc(C)c(S(=O)(=O)N3CCOCC3)c2C)cc1C,inactive: 71%
7,COc1ccc(/C=C/C(=O)O)cc1S(=O)(=O)N1CCCC1,inactive: 90%
8,CC1=C(C(=O)Nc2ccccc2)C(c2cc(Br)ccc2F)n2ncc(C(=O)Nc3ccccc3)c2N1 (configuration not stated),inactive: 130%
9,COc1cccc(-c2nc(S(=O)(=O)c3ccccc3)c(N3CCC(C)CC3)o2)c1,inactive: 50%
10,Cc1ccc(NC(=O)c2nnn(CC(=O)Nc3ccc(C)c(Cl)c3)c2N)c(C)c1,inactive: 124%
11,CCc1ccccc1Nc1cc(C(=O)NCCCN(C)C2CCCCC2)c2ccccc2n1,inactive: 93%
12,CCOc1ccc(NC(=O)Cn2cc(C(=O)c3ccccc3)c(=O)c3cc4c(cc32)OCCO4)cc1,inactive: 73%
13,COC(=O)c1ccc(NC(=O)CC2C(=O)N(c3ccc(C)cc3)C(=O)N2Cc2ccc(OC)cc2)cc1 (configuration not stated),inactive: 96%
14,Clc1ccc(-c2noc(-c3cccnc3N3CCN(c4ccccc4)CC3)n2)cc1,inactive: 75%
15,O=C(COc1ccccc1)Nc1nnc(SCc2cc(=O)c3ccccc3[nH]2)s1,inactive: 83%
16,Cc1ccc(C)c(N2CCN(C(=O)c3nn(C)c4c3CS(=O)(=O)c3ccccc3-4)CC2)c1,active: 49%
17,Cc1ccc(OCC(=O)Nc2ccc(S(=O)(=O)N3CCOCC3)cc2)c(C)c1,inactive: 94%
18,O=C1NC(=O)C(=Cc2ccc(N3CCCC3)cc2)C(=O)N1,inactive: 102%
19,Nc1c(C(=O)C2CC2)oc2ccccc12,inactive: 71%

row,Compound,survival
1,Cc1ccn2c(Nc3ccccc3C)c(-c3cccnc3)nc2c1,inactive: 81%
2,Cc1cnc2c(c1SCC(=O)NCc1ccccc1Cl)c(=O)n(C)c(=O)n2C,inactive: 120%
3,CC(C)(Oc1ccc(Cl)cc1)C(=O)Nc1nnc2n1CCS2,inactive: 78%
4,COc1cccc(C(=O)Nc2cccc(OCc3cc(=O)n4cccc(C)c4n3)c2)c1,inactive: 126%
5,Cc1ccc(NC(=O)CCC(=O)N2CCSc3ccccc32)cc1,inactive: 89%
6,Cc1ccc(NC(=O)C2CCC(CNS(=O)(=O)c3ccc4c(c3)C(C)(C)C(=O)N4C)CC2)cc1 (configuration not stated),active: 67%
7,CC(C)(C)c1ccc(C(=O)N2CCN(Cc3cc(=O)n4nc(-c5ccccc5F)sc4n3)CC2)cc1,inactive: 80%
8,C=CCSc1nnc(Cn2cnc3ccccc32)n1C,inactive: 62%
9,COc1cc(OC)c(NC(=O)Cn2cnc3nc4c(cc3c2=O)CCCC4)cc1Cl,active: -5%
10,O=C(CSc1nc(-c2ccccc2)cc(C(F)(F)F)n1)NCCN1CCOCC1,inactive: 78%
11,Cc1cc(=O)oc2cc(OCC(=O)Nc3c(C(C)C)cccc3C(C)C)ccc12,inactive: 66%
12,Clc1ccc(-c2nnn3c2nc(NCc2ccc4c(c2)OCO4)c2ccccc23)cc1,inactive: 59%
13,CCN(C(=O)CSc1nc2ccccc2n1CC(=O)N1CCCC(C)C1)c1ccccc1 (configuration not stated),inactive: 109%
14,CCOc1ccc(CCNC(=O)C2CCN(Cc3nc(-c4ccccc4C)oc3C)CC2)cc1OCC,inactive: 86%
15,CCOC(=O)c1cc2sccc2n1CC(=O)NC1CCC(C)CC1 (configuration not stated),inactive: 95%
16,O=C(CC(NCc1cccnc1)C(=O)O)Nc1ccc(O)cc1 (configuration not stated),inactive: 72%
17,Cn1c(=O)c(=O)n(C)c2cc(S(=O)(=O)Nc3ccc(Cl)c(C(F)(F)F)c3)ccc21,inactive: 74%
18,Cc1ccc(C2c3[nH]c4ccccc4c3CCN2C(=O)CCc2ccccc2)cc1 (configuration not stated),inactive: 73%
19,N#C/C(=C/C=C/c1ccco1)c1nc2ccccc2[nH]1,inactive: 76%

row,Compound,survival
1,COc1ccccc1-c1nc(SCC(=O)Nc2ccc(C)c(C)c2)n[nH]1,active: 43%
2,CCN(CC)C(=O)COc1ccc(-c2nnc(Nc3ccc(OC)c(C(=O)NC)c3)c3ccccc23)cc1,inactive: 49%
3,Cc1sc2ncn(CC(=O)N(C)c3cccc(C(F)(F)F)c3)c(=O)c2c1S(=O)(=O)N1CCN(c2ncccn2)CC1,inactive: 130%
4,Fc1ccc(-n2ncc3c(N4CCN(c5ccccc5F)CC4)ncnc32)cc1,inactive: 86%
5,COc1ccc(CCn2c(=O)c3cccnc3n(CC(=O)Nc3c(C)cc(C)cc3C)c2=O)cc1OC,inactive: 90%
6,CCCc1cc(N2CCN(c3ccc(OC)cc3)CC2)n2cnnc2n1,inactive: 71%
7,COc1cc(NC(=O)CCNC(=O)Cn2cnc3ccccc3c2=O)cc(OC)c1OC,inactive: 82%
8,Cc1ccc2nc3sc(C#N)c(N)c3cc2c1,inactive: 91%
9,O=C(CCCCCn1c(=O)[nH]c2ccccc2c1=O)NCc1ccc(Cl)cc1,inactive: 95%
10,CCC(=O)N1CCc2cc(Br)cc(S(=O)(=O)NCc3ccccc3)c21,inactive: 66%
11,CCC1CCCCN1C(=O)Cn1c(=O)n(CCCCCC(=O)NCc2ccccc2Cl)c(=O)c2sccc21 (configuration not stated),inactive: 73%
12,COc1cccc(-c2nnc3sc(CN4CCCCC4)cn23)c1,inactive: 77%
13,COc1ccc(CNC(=O)C(OC(=O)c2ccc(Cl)nc2)c2ccccn2)cc1 (configuration not stated),inactive: 104%
14,O=C(NCCc1ccc(Cl)cc1)c1ccc2c(c1)N(Cc1cccc(Cl)c1)C(=O)c1ccccc1S2(=O)=O,inactive: 117%
15,Cc1cccc(CCNC(=O)c2c[nH]c3ccc(S(=O)(=O)Nc4ccccc4F)cc3c2=O)c1,inactive: 90%
16,O=C(CSc1nc2ccccc2c(=O)[nH]1)NC1CCCC1,inactive: 87%
17,COC(=O)c1ccc(NC(=O)CC2C(=O)N(c3cccc(C)c3)C(=O)N2C2CCCC2)cc1 (configuration not stated),inactive: 124%
18,O=C(CCCc1ccccc1)NCC1CCCO1 (configuration not stated),inactive: 89%
19,Cc1cc(=O)oc2c3c(ccc12)OCN(Cc1ccc(Cl)cc1)C3,inactive: 61%
